Assay results reported in PubChem BioAssay AID588795 (National Center for Advancing Translational Sciences (NCATS), 2011).
The campaign covered roughly 390,000 compounds. About 1,400 (0.36%) were called active. Inconclusive results, whose numbers are uncertain, are shown with a selection of clear calls. Calls come from the whole dose curve; as a rule, active = well fitted inhibition curve with a large enough effect; inconclusive = small, poorly fitted or top-dose-only effect; inactive = no such curve, though single readings can be large or run the other way. Potencies beside an inconclusive call are fits to weak or partial responses and may not hold up.

target: Flap endonuclease 1 (Homo sapiens) (UniProt P39748); assay: qHTS Assay for the Inhibitors of Human Flap endonuclease 1 (FEN1).; note: nearly all actives have a fitted effect of over 65% in size; conditions: Recombinant FEN1 flap cleavage, fluorescence, 15 min; series mostly up to 114 µM; activity change, negative = inhibition: at the top concentration
Method in brief: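 With each library titrated from low to high concentration, compounds met 10 nM FEN1 for 15 min at room temperature before 50 nM substrate was added; readings at 0 and 15 min fed four-parameter Hill curve fits.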
% is set by controls: 0 for no effect and ±100 for the full control effect; potency is the fitted concentration of half-maximal effect; tags give direction and shape of the fitted curve.

Chain of UniProt P39748 (P39748 whole entry, looked up): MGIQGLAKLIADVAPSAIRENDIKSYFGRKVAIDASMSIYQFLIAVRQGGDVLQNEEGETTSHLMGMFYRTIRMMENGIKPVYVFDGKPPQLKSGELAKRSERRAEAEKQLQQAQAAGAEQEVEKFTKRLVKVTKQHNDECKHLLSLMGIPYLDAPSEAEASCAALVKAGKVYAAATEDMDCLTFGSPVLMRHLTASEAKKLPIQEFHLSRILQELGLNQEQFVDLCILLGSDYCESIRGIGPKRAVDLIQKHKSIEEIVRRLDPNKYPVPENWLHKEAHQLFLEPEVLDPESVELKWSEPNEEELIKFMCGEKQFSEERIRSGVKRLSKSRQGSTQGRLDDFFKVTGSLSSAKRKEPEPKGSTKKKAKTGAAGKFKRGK

SMILES	Potency	activity change, negative = inhibition
C#CCOCCOCCOCCNc1nc(N2CCN(C(=O)CCCCCCCCCCNC(=O)[C@H](CCCCN)n3cc(CCCC(=O)O)nn3)CC2)nc(N2CCN(C(=O)CCCCCCCCCCNC(=O)[C@H](CCCN=C(N)N)n3cc(C[C@@H](C)CC)nn3)CC2)n1	inconclusive: 89.1 µM [inhibitor, single point]	–
CN(C)c1ccc(C=O)c(F)c1	–	inactive: 15.8%
COc1ccc(-c2cnc(N)nc2-c2ccc(OC)cc2)cc1	inconclusive: 50.1 µM [inhibitor, partial curve, poor fit]	–
CCOC(=O)c1nnc(-c2ccc(C)cc2)nc1Oc1ccccc1Cl	inconclusive: 89.1 µM [inhibitor, partial curve, poor fit]	–
O=c1c2ccccc2oc2cc(NCCCn3ccnc3)ccc12	inconclusive: 56.2 µM [inhibitor, partial curve, poor fit]	–
O=C(CN1CCN(C(=O)N2CCOCC2)CC1)Nc1cc(Cl)ccc1Cl	–	inactive: -7.63%
CCCN(CCC)c1ccc(/C=C/c2sc3ccccc3[n+]2CCCCI)cc1	inconclusive: 56.2 µM [inhibitor, partial curve, poor fit]	–
Cc1ccc(-c2csc(NC(=O)c3cccc(N4C(=O)CCC4=O)c3)n2)o1	inconclusive: 79.4 µM [inhibitor, partial curve, poor fit]	–
CN1C(=O)c2cccc3c(N)ccc(c23)C1=O	inconclusive: 11.2 µM [inhibitor, full curve, poor fit]	–
COc1ccc(Br)cc1C1NC(c2ccc3c(c2)OCO3)=CC(c2cc(Cl)ccc2O)N1 (stereo unspecified)	inconclusive: 89.1 µM [inhibitor, partial curve, poor fit]	–
COc1ccc2sc(-c3ccc(SC)cc3)c(C#CC(C)(C)O)c2c1	inconclusive: 89.1 µM [inhibitor, partial curve, poor fit]	–
COc1cc(/C=C(\C#N)C(=O)Nc2nnc(C(F)(F)F)s2)ccc1OCc1ccc(C(F)(F)F)cc1C(F)(F)F	inconclusive: 6.7 µM [inhibitor, partial curve, poor fit]	–
COc1cc2[nH]c(C(=O)N3CCc4ccccc4C3)cc2c(OC)c1OC	inconclusive: 89.1 µM [inhibitor, partial curve, poor fit]	–
Cc1ccc2nc(Cl)c3cc(C(=O)N(CCN(C)C)Cc4ccco4)sc3c2c1	inconclusive: 50.1 µM [inhibitor, partial curve]	–
O=[N+]([O-])c1cccc2cn[nH]c12	inconclusive: 8.44 µM [inhibitor, single point]	–
O=S(=O)(Nc1ccccc1)c1ccc(Oc2ncc(C(F)(F)F)cc2Cl)cc1	inconclusive: 22.4 µM [inhibitor, partial curve, poor fit]	–
Cc1ccc(N2C(=O)CS(=O)C(c3ccccc3)C2=O)cc1C (stereo unspecified)	inconclusive: 89.1 µM [inhibitor, partial curve, poor fit]	–
COc1ccc(OC)c(NC(=O)COC(=O)c2n[nH]c3ccccc23)c1	inconclusive: 70.8 µM [inhibitor, partial curve, poor fit]	–
CCN(CC(=O)Nc1c(F)cccc1F)C(=O)CCc1nc2sc3c(c2c(=O)[nH]1)CCCC3	inconclusive: 89.1 µM [inhibitor, single point]	–
Fc1ccc(C2CC(c3cccs3)=NN2C(=S)Nc2ccccc2)cc1 (stereo unspecified)	inconclusive: 100 µM [inhibitor, partial curve, poor fit]	–
CC(C)c1cc(C(=O)OCC(=O)NC(=O)NCc2ccco2)c(O)c(C(C)C)c1	inconclusive: 70.8 µM [inhibitor, partial curve, poor fit]	–

SMILES	Potency	activity change, negative = inhibition
CC(C)(C)c1ccc(OCCC(=O)OCC(=O)N2c3ccccc3NC(=O)C2(C)C)cc1	inconclusive: 56.2 µM [inhibitor, partial curve, poor fit]	–
COc1cc(C2CC(=O)Nc3c2c(C)nn3-c2nncc(-c3ccccc3)n2)cc(OC)c1OC (stereo unspecified)	inconclusive: 79.4 µM [inhibitor, partial curve, poor fit]	–
CC1(C)CCN2CCC(C)(C)c3c(O)ccc1c32	inconclusive: 15.8 µM [inhibitor, partial curve, poor fit]	–
O=C(CSC1=NCCS1)Nc1ccc(F)cc1	inconclusive: 89.1 µM [inhibitor, partial curve, poor fit]	–
COc1cc2nc(N3CCCCC3)nc(NC3CCN(Cc4ccccc4)CC3)c2cc1OC	active: 39.8 µM	–
CCCCn1c(-c2cc(Cl)ccc2OC)n[nH]c1=S	–	inactive: 1.31%
CCCCCCCCc1nnc(NC(=O)c2ccco2)s1	–	inactive: -4.52%
Cc1ccc(-c2nn3c(C)nnc3s2)cc1NC(=O)c1ccc(-c2ccc(Cl)cc2Cl)o1	active: 56.2 µM	–
CCc1ccc(CN(C)C(C)C(=O)NCc2ccccc2)cc1 (stereo unspecified)	–	inactive: -1.8%
Cc1ccc(C)c(CN2CCC(CNC(=O)c3cc4ccc5cccnc5c4[nH]3)CC2)c1	–	inactive: -5.94%
CC1(C)C2CCC1(C)C(NC(=O)COC(=O)c1ccc(S(C)(=O)=O)c([N+](=O)[O-])c1)C2 (stereo unspecified)	–	inactive: -20.5%
O=c1c2ccccc2sn1-c1ccc(F)cc1	active: 79.4 µM	–
COc1cc(/C=N/NC(=O)c2nc(-c3ccccc3)n(-c3ccccc3)n2)ccc1O	inconclusive: 50.1 µM [inhibitor, partial curve]	–
CCOc1ccccc1N1CCN(Cc2ccc(Br)s2)CC1	inconclusive: 89.1 µM [inhibitor, partial curve, poor fit]	–
O=C(CCc1c[nH]c2ccccc12)OCc1cccc(C(F)(F)F)c1	inconclusive: 50.1 µM [inhibitor, partial curve, poor fit]	–
O=[N+]([O-])c1cccc(SSc2cccc([N+](=O)[O-])c2)c1	inconclusive: 89.1 µM [inhibitor, single point]	–
O=C(Nc1ccccc1Cl)c1cccc(NC(=O)c2cccs2)c1	inconclusive: 56.2 µM [inhibitor, partial curve, poor fit]	–
Cc1nnc(SCC(=O)Nc2nsc(-c3ccc(C(C)(C)C)cc3)n2)s1	inconclusive: 50.1 µM [inhibitor, partial curve, poor fit]	–
O=C1CC(c2ccc(O)c(O)c2)Oc2cc(O)cc(O)c21 (stereo unspecified)	inconclusive: 39.8 µM [inhibitor, partial curve]	–
O=C(NCc1ccccc1)c1ccc(CSc2nc3cccnc3n2Cc2ccccc2F)cc1	inconclusive: 56.2 µM [inhibitor, partial curve, poor fit]	–
Cc1ccccc1CNC1CCCCC1	–	inactive: 4.6%

SMILES	Potency	activity change, negative = inhibition
O=c1c(O)c(-c2ccc(O)cc2O)oc2cc(O)cc(O)c12	active: 28.2 µM	–
COc1ccc(C2CNC(=O)C2)cc1OC1CCCC1 (stereo unspecified)	inconclusive: 8.44 µM [inhibitor, partial curve, poor fit]	–
O=C(N/N=C/c1ccc2ccccc2c1)c1ccc(COc2ccc3c(c2)CCC3)o1	inconclusive: 79.4 µM [inhibitor, partial curve]	–
O=C(NCCO)c1cc2c([nH]c3ccccc32)c(-c2ccc(F)cc2)n1	inconclusive: 50.1 µM [inhibitor, partial curve]	–
CCOC(=O)C(=N/O)/C(C)=N/NC(=O)C(=O)Nc1cc(Cl)ccc1Cl	–	inactive: 2.34%
COc1ccc2occ(CC(=O)Nc3ccc(S(=O)(=O)Nc4nc(C)cc(C)n4)cc3)c2c1	inconclusive: 89.1 µM [inhibitor, single point]	–
C/C(=N\NC(=O)CSc1nc2nc(C)cc(C)n2n1)c1ccccc1	inconclusive: 100 µM [inhibitor, single point]	–
COc1ccc(-c2nnc3c4ccccc4c(C)nn23)cc1	inconclusive: 70.8 µM [inhibitor, single point]	–
CCCc1ccc(-c2cc(NC(=O)CSc3nnc(N)s3)n(-c3ccccc3)n2)cc1	inconclusive: 89.1 µM [inhibitor, partial curve, poor fit]	–
COc1cccc(C(=O)N/N=C/c2ccc(Oc3ccc([N+](=O)[O-])cn3)c(OC)c2)c1	inconclusive: 25.1 µM [inhibitor, full curve, poor fit]	–
OCC1OC(Oc2cccc3ccccc23)C(O)C(O)C1O (stereo unspecified)	–	inactive: 0.653%
Cc1ccc(S(=O)(=O)Nc2cc(Cl)c(O)c3ncccc23)cc1	inconclusive: 1.26 µM [inhibitor, full curve, poor fit]	–
O=C1CN(C(=O)c2ccc(S(=O)(=O)N3CCCC3)cc2)C(c2ccccc2)c2cc(Br)ccc2N1 (stereo unspecified)	inconclusive: 89.1 µM [inhibitor, partial curve, poor fit]	–
COc1ccc(Cc2nc3ccccc3n2Cc2ccccc2F)cc1	inconclusive: 79.4 µM [inhibitor, partial curve, poor fit]	–
O=C(O)c1ccc(N/N=C/c2cc3ccccc3nc2Cl)cc1	inconclusive: 39.8 µM [inhibitor, partial curve]	–
CC(O)CNc1nc2c(c(=O)n(Cc3ccc(Cl)cc3)c(=O)n2C)n1C (stereo unspecified)	inconclusive: 89.1 µM [inhibitor, single point]	–
NS(=O)(=O)c1cccc(NC(=O)c2cc(-c3cccs3)nc3ccccc23)c1	inconclusive: 70.8 µM [inhibitor, partial curve, poor fit]	–
O=C1c2cccc3cc([N+](=O)[O-])cc(c23)C(=O)N1/N=C/c1ccc(O)cc1O	inconclusive: 50.1 µM [inhibitor, partial curve, poor fit]	–
O=C(Nc1c(C(=O)N2CCN(c3ccccc3)CC2)oc2ccccc12)c1ccco1	–	inactive: 7.76%
